Test results: PMC5062570 (Nature Communications, 2016)
Where “and” joins values, the source holds several entries; their conditions need not be identical. Equal values may be shown once.

Legend:
[1] = target: PF-7802-labelled proteins in ARPE-19 cells (Homo sapiens, UniProt P68371); conditions: for Median SILAC Ratio (Heavy/Light): TUBB4B Tubulin beta-4B chain (P68371)
[2] = target: T1, PF-7802-labelled proteins in ARPE-19 cells (Homo sapiens, UniProt P40926); conditions: for Median SILAC Ratio (Heavy/Light): protein MDH2 Malate dehydrogenase, mitochondrial (P40926), replicates in separate columns
T1 sequence (P40926 25-338): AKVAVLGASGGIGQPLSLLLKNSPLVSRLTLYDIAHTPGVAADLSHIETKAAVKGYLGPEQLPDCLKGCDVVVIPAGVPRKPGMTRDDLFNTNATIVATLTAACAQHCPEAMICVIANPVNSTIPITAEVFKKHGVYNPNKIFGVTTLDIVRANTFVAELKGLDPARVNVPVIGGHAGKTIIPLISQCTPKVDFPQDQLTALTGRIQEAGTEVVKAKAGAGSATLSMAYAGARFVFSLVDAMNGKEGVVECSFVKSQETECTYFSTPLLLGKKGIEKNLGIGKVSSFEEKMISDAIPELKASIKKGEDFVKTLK

[3] = target: PF-7802-labelled proteins in ARPE-19 cells (Homo sapiens, UniProt P42765); conditions: protein ACAA2 3-ketoacyl-CoA thiolase, mitochondrial (P42765)
[4] = target: PF-7802-labelled proteins in ARPE-19 cells (Homo sapiens, UniProt Q16790); conditions: protein CA9 Carbonic anhydrase 9 (Q16790)
[5] = target: PF-7802-labelled proteins in ARPE-19 cells (Homo sapiens, UniProt P06756); conditions: protein ITGAV Integrin alpha-V (P06756); one column per replicate
[6] = target: PF-7802-labelled proteins in ARPE-19 cells (Homo sapiens, UniProt P62917); conditions: protein RPL8 60S ribosomal protein L8, P62917
[7] = target: PF-7802-labelled proteins in ARPE-19 cells (Homo sapiens, UniProt P17987); conditions: TCP1 T-complex protein 1 subunit alpha (P17987)
[8] = target: PF-7802-labelled proteins in ARPE-19 cells (Homo sapiens, UniProt P62266); conditions: protein RPS23 40S ribosomal protein S23, P62266
[9] = target: PF-7802-labelled proteins in ARPE-19 cells (Homo sapiens, UniProt P31930); conditions: UQCRC1 Cytochrome b-c1 complex subunit 1, mitochondrial (P31930)
[10] = target: PF-7802-labelled proteins in ARPE-19 cells (Homo sapiens, UniProt P49257); conditions: protein LMAN1 Protein ERGIC-53 (P49257); replicates in separate columns
[11] = target: PF-7802-labelled proteins in ARPE-19 cells (Homo sapiens, UniProt P18206); conditions: VCL Vinculin (P18206)
[12] = target: PF-7802-labelled proteins in ARPE-19 cells (Homo sapiens, UniProt P42766); conditions: protein RPL35 60S ribosomal protein L35, P42766
[13] = target: PF-7802-labelled proteins in ARPE-19 cells (Homo sapiens, UniProt P63162); conditions: SNRPN Small nuclear ribonucleoprotein-associated protein N (P63162)
[14] = target: PF-7802-labelled proteins in ARPE-19 cells (Homo sapiens, UniProt P49207); conditions: protein RPL34 60S ribosomal protein L34, P49207
[15] = target: PF-7802-labelled proteins in ARPE-19 cells (Homo sapiens, UniProt Q5BJF2); conditions: TMEM97 Transmembrane protein 97 (Q5BJF2)
[16] = target: PF-7802-labelled proteins in ARPE-19 cells (Homo sapiens, UniProt Q12797); conditions: protein ASPH Aspartyl/asparaginyl beta-hydroxylase (Q12797)
[17] = target: PF-7802-labelled proteins in ARPE-19 cells (Homo sapiens, UniProt P61313); conditions: protein RPL15 60S ribosomal protein L15, P61313
[18] = target: T2, PF-7802-labelled proteins in ARPE-19 cells (Homo sapiens, UniProt P30837); conditions: for Median SILAC Ratio (Heavy/Light): protein ALDH1B1 Aldehyde dehydrogenase X, mitochondrial (P30837)
T2 sequence (P30837 18-517): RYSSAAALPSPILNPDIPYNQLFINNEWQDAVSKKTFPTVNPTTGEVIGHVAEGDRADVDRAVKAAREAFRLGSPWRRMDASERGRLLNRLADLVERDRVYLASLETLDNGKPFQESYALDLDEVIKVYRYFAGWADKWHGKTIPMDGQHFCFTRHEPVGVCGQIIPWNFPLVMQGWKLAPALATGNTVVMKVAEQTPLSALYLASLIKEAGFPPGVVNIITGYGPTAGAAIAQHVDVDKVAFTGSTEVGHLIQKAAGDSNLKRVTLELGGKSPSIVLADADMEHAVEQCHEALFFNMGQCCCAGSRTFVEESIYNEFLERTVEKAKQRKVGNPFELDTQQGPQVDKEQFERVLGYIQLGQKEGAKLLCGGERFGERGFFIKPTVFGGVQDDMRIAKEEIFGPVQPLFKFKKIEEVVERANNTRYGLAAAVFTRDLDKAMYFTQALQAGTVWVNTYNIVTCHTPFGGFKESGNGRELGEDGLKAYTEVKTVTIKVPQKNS

[19] = target: PF-7802-labelled proteins in ARPE-19 cells (Homo sapiens, UniProt P62753); conditions: protein RPS6 40S ribosomal protein S6, P62753
[20] = target: PF-7802-labelled proteins in ARPE-19 cells (Homo sapiens, UniProt Q9UPN3); conditions: for Median SILAC Ratio (Heavy/Light): protein MACF1 Microtubule-actin cross-linking factor 1, isoforms 1/2/3/5 (Q9UPN3), replicates in separate columns

Sequence of UniProt P68371 (P68371 whole entry): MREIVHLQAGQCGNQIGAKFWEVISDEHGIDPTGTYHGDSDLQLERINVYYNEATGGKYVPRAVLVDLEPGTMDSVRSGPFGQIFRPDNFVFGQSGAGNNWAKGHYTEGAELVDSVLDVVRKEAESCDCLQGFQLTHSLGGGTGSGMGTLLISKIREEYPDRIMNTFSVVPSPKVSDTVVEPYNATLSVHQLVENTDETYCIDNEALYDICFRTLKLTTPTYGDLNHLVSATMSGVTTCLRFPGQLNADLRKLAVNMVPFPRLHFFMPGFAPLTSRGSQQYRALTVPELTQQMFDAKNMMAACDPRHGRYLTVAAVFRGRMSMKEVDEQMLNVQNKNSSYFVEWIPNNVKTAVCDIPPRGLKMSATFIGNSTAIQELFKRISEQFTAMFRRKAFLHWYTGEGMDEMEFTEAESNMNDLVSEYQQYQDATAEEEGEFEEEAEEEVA
Sequence of UniProt Q12797 (Q12797 whole entry): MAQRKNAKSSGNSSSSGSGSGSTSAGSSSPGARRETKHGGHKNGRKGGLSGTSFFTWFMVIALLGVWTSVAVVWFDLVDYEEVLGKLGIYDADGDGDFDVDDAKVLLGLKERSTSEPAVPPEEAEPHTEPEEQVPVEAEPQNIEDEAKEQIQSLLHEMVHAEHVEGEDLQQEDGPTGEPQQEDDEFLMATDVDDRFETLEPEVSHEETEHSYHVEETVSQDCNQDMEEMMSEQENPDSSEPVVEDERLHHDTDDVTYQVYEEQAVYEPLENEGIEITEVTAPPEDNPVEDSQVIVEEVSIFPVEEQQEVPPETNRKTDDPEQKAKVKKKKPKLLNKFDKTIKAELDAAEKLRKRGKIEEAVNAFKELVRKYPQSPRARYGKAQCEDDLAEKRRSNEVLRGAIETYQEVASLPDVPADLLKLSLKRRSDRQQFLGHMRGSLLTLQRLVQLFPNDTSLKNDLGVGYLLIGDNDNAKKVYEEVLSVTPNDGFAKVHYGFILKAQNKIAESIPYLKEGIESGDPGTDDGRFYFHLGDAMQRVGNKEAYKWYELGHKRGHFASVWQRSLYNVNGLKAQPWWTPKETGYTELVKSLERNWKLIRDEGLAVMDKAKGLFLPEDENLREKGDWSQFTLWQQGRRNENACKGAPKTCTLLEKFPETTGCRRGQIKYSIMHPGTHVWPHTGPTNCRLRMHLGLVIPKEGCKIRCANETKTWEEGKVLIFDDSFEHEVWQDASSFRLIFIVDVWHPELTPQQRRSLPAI
Sequence of UniProt P18206 (P18206 whole entry): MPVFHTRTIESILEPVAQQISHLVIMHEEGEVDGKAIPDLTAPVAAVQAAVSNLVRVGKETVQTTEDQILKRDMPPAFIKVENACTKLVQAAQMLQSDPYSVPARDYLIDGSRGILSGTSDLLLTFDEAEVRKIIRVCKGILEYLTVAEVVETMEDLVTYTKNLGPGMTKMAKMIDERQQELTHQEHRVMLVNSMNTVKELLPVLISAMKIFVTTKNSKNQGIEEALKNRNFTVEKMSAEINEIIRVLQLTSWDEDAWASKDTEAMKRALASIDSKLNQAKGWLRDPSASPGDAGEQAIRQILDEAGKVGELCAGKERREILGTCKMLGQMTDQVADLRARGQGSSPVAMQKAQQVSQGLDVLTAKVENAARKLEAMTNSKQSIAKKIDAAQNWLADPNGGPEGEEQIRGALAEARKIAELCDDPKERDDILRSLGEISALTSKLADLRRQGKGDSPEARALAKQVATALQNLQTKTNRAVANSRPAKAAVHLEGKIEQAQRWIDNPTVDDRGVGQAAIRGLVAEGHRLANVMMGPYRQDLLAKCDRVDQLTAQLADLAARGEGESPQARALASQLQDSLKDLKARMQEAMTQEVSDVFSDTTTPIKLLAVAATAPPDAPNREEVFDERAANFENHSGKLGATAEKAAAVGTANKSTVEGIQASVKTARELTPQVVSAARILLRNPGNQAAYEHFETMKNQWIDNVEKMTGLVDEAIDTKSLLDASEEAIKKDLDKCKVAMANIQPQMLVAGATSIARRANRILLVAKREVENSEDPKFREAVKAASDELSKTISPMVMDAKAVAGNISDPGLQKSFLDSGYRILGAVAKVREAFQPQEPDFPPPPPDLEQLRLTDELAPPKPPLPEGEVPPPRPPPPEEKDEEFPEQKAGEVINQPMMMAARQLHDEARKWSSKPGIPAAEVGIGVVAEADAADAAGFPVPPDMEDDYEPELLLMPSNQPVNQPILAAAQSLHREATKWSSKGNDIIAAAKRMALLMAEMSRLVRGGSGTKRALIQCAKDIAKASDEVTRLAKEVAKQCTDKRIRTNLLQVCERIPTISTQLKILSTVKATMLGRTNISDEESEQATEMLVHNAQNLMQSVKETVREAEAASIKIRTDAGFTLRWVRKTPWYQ
Sequence of UniProt P42765 (P42765 whole entry): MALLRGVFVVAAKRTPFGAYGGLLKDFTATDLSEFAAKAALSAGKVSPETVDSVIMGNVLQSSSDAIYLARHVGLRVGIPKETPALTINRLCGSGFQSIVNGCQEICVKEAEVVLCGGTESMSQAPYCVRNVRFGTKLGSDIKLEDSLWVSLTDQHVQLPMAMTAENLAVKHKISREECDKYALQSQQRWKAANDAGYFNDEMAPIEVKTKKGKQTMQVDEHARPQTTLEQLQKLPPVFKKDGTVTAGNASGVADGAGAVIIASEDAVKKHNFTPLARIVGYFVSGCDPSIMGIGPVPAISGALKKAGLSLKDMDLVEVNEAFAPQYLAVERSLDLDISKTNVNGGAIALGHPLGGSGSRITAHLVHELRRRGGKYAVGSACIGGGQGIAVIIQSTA
Sequence of UniProt Q5BJF2 (Q5BJF2 whole entry): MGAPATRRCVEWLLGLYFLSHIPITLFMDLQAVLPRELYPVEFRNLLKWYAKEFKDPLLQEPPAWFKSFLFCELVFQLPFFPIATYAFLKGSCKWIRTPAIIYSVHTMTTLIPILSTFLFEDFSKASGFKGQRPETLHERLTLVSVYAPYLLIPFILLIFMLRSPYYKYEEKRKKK
Sequence of UniProt P17987 (P17987 whole entry): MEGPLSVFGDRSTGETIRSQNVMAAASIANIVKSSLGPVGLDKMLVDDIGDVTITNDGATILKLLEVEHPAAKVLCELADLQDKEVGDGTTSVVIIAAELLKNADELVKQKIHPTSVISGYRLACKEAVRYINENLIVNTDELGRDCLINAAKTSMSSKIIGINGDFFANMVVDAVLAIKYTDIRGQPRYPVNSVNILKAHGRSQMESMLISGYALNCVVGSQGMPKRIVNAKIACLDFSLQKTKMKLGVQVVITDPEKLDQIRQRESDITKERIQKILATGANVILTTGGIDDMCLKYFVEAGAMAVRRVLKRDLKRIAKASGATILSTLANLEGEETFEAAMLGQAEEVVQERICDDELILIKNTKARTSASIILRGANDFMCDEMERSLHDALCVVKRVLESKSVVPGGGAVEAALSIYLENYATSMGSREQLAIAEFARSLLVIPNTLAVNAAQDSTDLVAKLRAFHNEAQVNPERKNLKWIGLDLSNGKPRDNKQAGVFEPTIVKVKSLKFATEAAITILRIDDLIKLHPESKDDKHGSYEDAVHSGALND

Row | SMILES | Median SILAC Ratio (Heavy/Light) [1] | Median SILAC Ratio (Heavy/Light) [2] | Median SILAC Ratio (Heavy/Light) [3] | Median SILAC Ratio (Heavy/Light) [4] | Median SILAC Ratio (Heavy/Light) [5] | Median SILAC Ratio (Heavy/Light) [6] | Median SILAC Ratio (Heavy/Light) [7] | Median SILAC Ratio (Heavy/Light) [8] | Median SILAC Ratio (Heavy/Light) [9] | Median SILAC Ratio (Heavy/Light) [10] | Median SILAC Ratio (Heavy/Light) [11] | Median SILAC Ratio (Heavy/Light) [12] | Median SILAC Ratio (Heavy/Light) [13] | Median SILAC Ratio (Heavy/Light) [14] | Median SILAC Ratio (Heavy/Light) [15] | Median SILAC Ratio (Heavy/Light) [16] | Median SILAC Ratio (Heavy/Light) [17] | Median SILAC Ratio (Heavy/Light) [18] | Median SILAC Ratio (Heavy/Light) [19] | Median SILAC Ratio (Heavy/Light) [20] | also measured
1 | CNC1CCN(C(=O)C[C@@H](Cc2ccccc2)C(=O)N[C@@H](CSC)C(=O)N[C@@H](CC2CCCCC2)[C@@H](O)C(=O)OC(C)C)CC1 [CP-108671, reference compound] | 2.229 and 1.333 | 1.243 | 1.345 | 1.257 | 1.264 | 2.162 | 0.8158 | 1.856 | 0.3005 | 1.464 | 2.042 | 1.4703 | 1.054 | 1.66 | 0.2793 | 1.437 | 1.858 | 1.3994 | 0.8855 | 1.273 | SILAC ratio (DMSO/CP-108671) ([1]; P68371 TUBB4B Tubulin beta-4B chain): 0.45; SILAC ratio (DMSO/CP-108671) ([2]; P40926 MDH2 Malate dehydrogenase, mitochondrial): 0.80; SILAC ratio (DMSO/CP-108671) ([18]; P30837 ALDH1B1 Aldehyde dehydrogenase X, mitochondrial): 0.71; SILAC ratio (DMSO/CP-108671) ([20]; Q9UPN3 MACF1 Microtubule-actin cross-linking factor 1, isoforms 1/2/3/5): 0.79
2 | Cc1cc([C@H]2C[C@H]3[C@@H](C)SC(N)=N[C@@]3(c3ccc(F)cc3F)CO2)on1 [PF-9283] | 1.998 and 1.162 and 1.78 | 1.345 | 1.484 | 1.513 | 1.529 | 1.999 | 0.8953 | 1.75 and 1.214 | 1.2091 | 1.415 | 1.456 and 1.39 and 1.283 | 1.367 and 1.145 | 1.326 | 1.562 | 0.5851 | 1.548 and 0.8167 | 1.885 and 1.232 and 1.67 | 1.4738 | 0.9748 | 1.5705 | –
